Where a chain is given by its changes, count along the chain named. The list shows a part of the results.
T1: RBFOX1 RRM RbFoxmut (Fox-RRM*) (Homo sapiens, UniProt Q9NWB1 109-208, R118D;E147R;N151S;E152T)
T1 sequence: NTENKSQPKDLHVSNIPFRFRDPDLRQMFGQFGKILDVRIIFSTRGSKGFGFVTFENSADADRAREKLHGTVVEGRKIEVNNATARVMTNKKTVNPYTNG

B1: UUAGUUA (DNA:RNA)
RNA: GGGAGACCGGAAUUCAGAUUGUCCUUAGUUAUUAAAUCCCGUCGUAGCCACCA
DNA 1: CAATCTGAATTCCGGTCTCCC
DNA 2: TGGTGGCTACGACGGGATT
B2: ACUCGAA (DNA:RNA)
RNA: B1 RNA with U25A, U26C, A27U, G28C, U29G, U30A
DNA 1: CAATCTGAATTCCGGTCTCCC
DNA 2: TGGTGGCTACGACGGGATT
B3: UGACAGA (DNA:RNA)
RNA: B1 RNA with U26G, G28C, U29A, U30G
DNA 1: CAATCTGAATTCCGGTCTCCC
DNA 2: TGGTGGCTACGACGGGATT
B4: CCUUUGC (DNA:RNA)
RNA: B1 RNA with U25C, U26C, A27U, G28U, U30G, A31C
DNA 1: CAATCTGAATTCCGGTCTCCC
DNA 2: TGGTGGCTACGACGGGATT
B5: CGAAGGC (DNA:RNA)
RNA: B1 RNA with U25C, U26G, G28A, U29G, U30G, A31C
DNA 1: CAATCTGAATTCCGGTCTCCC
DNA 2: TGGTGGCTACGACGGGATT
B6: UCCAGGU (DNA:RNA)
RNA: B1 RNA with U26C, A27C, G28A, U29G, U30G, A31U
DNA 1: CAATCTGAATTCCGGTCTCCC
DNA 2: TGGTGGCTACGACGGGATT
B7: UUUGCAG (DNA:RNA)
RNA: B1 RNA with A27U, U29C, U30A, A31G
DNA 1: CAATCTGAATTCCGGTCTCCC
DNA 2: TGGTGGCTACGACGGGATT
B8: UACUAUC (DNA:RNA)
RNA: B1 RNA with U26A, A27C, G28U, U29A, A31C
DNA 1: CAATCTGAATTCCGGTCTCCC
DNA 2: TGGTGGCTACGACGGGATT
B9: UCGGCGU (DNA:RNA)
RNA: B1 RNA with U26C, A27G, U29C, U30G, A31U
DNA 1: CAATCTGAATTCCGGTCTCCC
DNA 2: TGGTGGCTACGACGGGATT
B10: UCUGCGU (DNA:RNA)
RNA: B1 RNA with U26C, A27U, U29C, U30G, A31U
DNA 1: CAATCTGAATTCCGGTCTCCC
DNA 2: TGGTGGCTACGACGGGATT
B11: GGCGAUG (DNA:RNA)
RNA: B1 RNA with U25G, U26G, A27C, U29A, A31G
DNA 1: CAATCTGAATTCCGGTCTCCC
DNA 2: TGGTGGCTACGACGGGATT
B12: GUGUGAA (DNA:RNA)
RNA: B1 RNA with U25G, A27G, G28U, U29G, U30A
DNA 1: CAATCTGAATTCCGGTCTCCC
DNA 2: TGGTGGCTACGACGGGATT
B13: UACCUGA (DNA:RNA)
RNA: B1 RNA with U26A, A27C, G28C, U30G
DNA 1: CAATCTGAATTCCGGTCTCCC
DNA 2: TGGTGGCTACGACGGGATT
B14: UAUGAUU (DNA:RNA)
RNA: B1 RNA with U26A, A27U, U29A, A31U
DNA 1: CAATCTGAATTCCGGTCTCCC
DNA 2: TGGTGGCTACGACGGGATT
B15: GUGGGUC (DNA:RNA)
RNA: B1 RNA with U25G, A27G, U29G, A31C
DNA 1: CAATCTGAATTCCGGTCTCCC
DNA 2: TGGTGGCTACGACGGGATT
B16: AUCGCUG (DNA:RNA)
RNA: B1 RNA with U25A, A27C, U29C, A31G
DNA 1: CAATCTGAATTCCGGTCTCCC
DNA 2: TGGTGGCTACGACGGGATT
B17: ACCACCC (DNA:RNA)
RNA: GGGAGACCGGAAUUCAGAUUGUCCACCACCCUUAAAUCCCGUCGUAGCCACCA
DNA 1: CAATCTGAATTCCGGTCTCCC
DNA 2: TGGTGGCTACGACGGGATT
B18: UCGGAGG (DNA:RNA)
RNA: B1 RNA with U26C, A27G, U29A, U30G, A31G
DNA 1: CAATCTGAATTCCGGTCTCCC
DNA 2: TGGTGGCTACGACGGGATT
B19: AAGCUAU (DNA:RNA)
RNA: B17 RNA with C26A, C27G, A28C, C29U, C30A, C31U
DNA 1: CAATCTGAATTCCGGTCTCCC
DNA 2: TGGTGGCTACGACGGGATT
B20: AUUUCAG (DNA:RNA)
RNA: B17 RNA with C26U, C27U, A28U, C30A, C31G
DNA 1: CAATCTGAATTCCGGTCTCCC
DNA 2: TGGTGGCTACGACGGGATT

molecular target: T1, RBFOX1 RRM RbFoxmut (Fox-RRM*); test: EMSA; HiTS-Eq, 1 nM pool, 10 min; buffer printed only for the single-RNA assays: 10 mM Tris pH 7.5, 150 mM NaCl, 3.4 mM EDTA, 0.001% NP-40, 30 C; conditions: tags: His6 N-terminal (pET28a); label: 5' 32P
Procedure, shortened: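 Relative association constants, normalised to the cognate motif, were derived by comparing read counts of each RNA species with those of the control reaction. The RNA sequenced was the free fraction, separated by 8% native PAGE after a 10 min equilibration in 50 µL of 1 nM 5′-radiolabelled RNA (7 randomized nucleotides) with increasing concentrations of purified wild-type or mutant RbFox RRM.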

| Binder | binding signal |
| --- | --- |
| B1 | 0.142 KA relative to UGCAUGU |
| B2 | 0.103 KA relative to UGCAUGU |
| B3 | 0.0658 KA relative to UGCAUGU |
| B4 | 0.109 KA relative to UGCAUGU |
| B5 | 0.0756 KA relative to UGCAUGU |
| B6 | 0.119 KA relative to UGCAUGU |
| B7 | 0.0931 KA relative to UGCAUGU |
| B8 | 0.079 KA relative to UGCAUGU |
| B9 | 0.1 KA relative to UGCAUGU |
| B10 | 0.128 KA relative to UGCAUGU |
| B11 | 0.404 KA relative to UGCAUGU |
| B12 | 0.132 KA relative to UGCAUGU |
| B13 | 0.0659 KA relative to UGCAUGU |
| B14 | 0.0734 KA relative to UGCAUGU |
| B15 | 0.246 KA relative to UGCAUGU |
| B16 | 0.11 KA relative to UGCAUGU |
| B17 | 0.0531 KA relative to UGCAUGU |
| B18 | 0.115 KA relative to UGCAUGU |
| B19 | 0.102 KA relative to UGCAUGU |
| B20 | 0.119 KA relative to UGCAUGU |

From article PMC9911399, “Two distinct binding modes provide the RNA-binding protein RbFox with extraordinary sequence specificity”
